# Assay results from the supplement of paper PMC9135407.
# Where “and” joins values, the source holds several entries; their conditions need not be identical. Equal values may be shown once. Where a name gives a salt, the structure may show the parent alone. The campaign covered roughly 5,800 compounds. About 620 (11%) showed activity.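 Rule for the calls: active = score above a cut-off or among the top three wells of a plate; in these data no inactive exceeds 0.85.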 This is a selection; strong and weak results do not stand in their true shares.
# Test system: primary human hepatic stellate cells (donor 1)
# Test: scaled lipid accumulation score (0 = DMSO-like, 1 = nortriptyline-like); higher = stronger HSC inactivation (lipid re-accumulation), active = hit call of the paper
# Conditions: 48 h
# [1] = library stock concentration: 10 mM
# [2] = library stock concentration: 3.33 mM
smiles,measurement,setting,value
CN1C2CCC1CC(OC(=O)c1cc(Cl)cc(Cl)c1)C2 (configuration not stated),scaled lipid accumulation score,[1],active: 1.04
CN(C)Cc1c[nH]c2ccccc12 [Gramine],scaled lipid accumulation score,,inactive: 0.049
same,scaled lipid accumulation score,[2],inactive: ≤ 0
same,scaled lipid accumulation score,[1],inactive: 0.643
Nc1ccncc1 [Fampridine],scaled lipid accumulation score,library stock concentration: 21.3 mM,inactive: ≤ 0
Nc1ccncc1 [4-Aminopyridine],scaled lipid accumulation score,[1],inactive: ≤ 0 and inactive: 0.047
same,scaled lipid accumulation score,library stock concentration: 53.1 mM,inactive: ≤ -0.021
C[N+]1(C)CCOC(O)(c2ccc(-c3ccc(C4(O)C[N+](C)(C)CCO4)cc3)cc2)C1 (configuration not stated) [Hemicholinium-3],scaled lipid accumulation score,[1],inactive: ≤ -0.07
C[N+]1(C)CCOC(O)(c2ccc(-c3ccc(C4(O)C[N+](C)(C)CCO4)cc3)cc2)C1 (configuration not stated) [Hemicholinium bromide],scaled lipid accumulation score,,inactive: 0.078
COc1ccc(CNC(=O)/C=C/c2ccc3[nH]cc(CCN(C)C)c3c2)cc1,scaled lipid accumulation score,[1],inactive: 0.736
C[CH2][Hg][S]c1ccccc1C(=O)[O-].[Na+] [Thimerosal],scaled lipid accumulation score,library stock concentration: 4.9 mM,inactive: ≤ 0
same,scaled lipid accumulation score,[1],inactive: 0.537
NC(=O)C[S@@+]([O-])C(c1ccccc1)c1ccccc1,scaled lipid accumulation score,[1],inactive: ≤ 0
CC(C)(C)OC(=O)NC1[C@H]2CNC[C@@H]12 (some centres not stated),scaled lipid accumulation score,[1],inactive: ≤ -0.033
Cc1ncc2n1-c1ccc(Cl)cc1C(c1ccccc1F)=NC2,scaled lipid accumulation score,[1],inactive: ≤ 0
NC(=O)c1ccc(OCC(O)CN2CC=C(c3ccc(F)cc3)CC2)cc1 (configuration not stated),scaled lipid accumulation score,[1],inactive: 0.081
NNCc1ccccc1 [Benzylhydrazine hydrochloride],scaled lipid accumulation score,[1],inactive: 0.294
CC(C)=CC1C(C(=O)OCc2cccc(Oc3ccccc3)c2)C1(C)C (configuration not stated) [Phenothrin],scaled lipid accumulation score,[1],inactive: ≤ -0.027
CCOC(=O)CN1C(=O)CC(C[C@@H](O)C2C[C@@H](C)C[C@H](C)C2=O)CC1=O (some centres not stated) [Cycloheximide-N-ethylethanoate],scaled lipid accumulation score,library stock concentration: 13.6 mM,inactive: ≤ -0.021
C[N+](C)(C)CC#CCN1CCCC1=O [Oxotremorine methiodide],scaled lipid accumulation score,[1],inactive: ≤ -0.055
C[N+](C)(C)CC#CCN1CCCC1=O [Oxotremorine M],scaled lipid accumulation score,[1],inactive: ≤ 0
COc1ccn(C)c(=O)c1C#N [Ricinine],scaled lipid accumulation score,,inactive: ≤ 0
CCCCC/C=C\C/C=C\C/C=C\C/C=C\CCC(C)C(=O)NCCF (configuration not stated),scaled lipid accumulation score,library stock concentration: 1 mM,inactive: 0.05
NC(=O)CN1CC(O)CC1=O (configuration not stated) [Oxiracetam],scaled lipid accumulation score,[2],inactive: ≤ 0
same,scaled lipid accumulation score,[1],inactive: ≤ -0.001 and inactive: ≤ -0.055
CCCC(C)C1(CC)C(=O)NC(=S)NC1=O (configuration not stated) [Thiopental sodium],scaled lipid accumulation score,library stock concentration: 7.6 mM,inactive: 0.052
COc1cc([C@@H]2c3cc4c(cc3[C@H](O)[C@H]3COC(=O)[C@@H]23)OCO4)cc(OC)c1OC [Picropodophyllotoxin],scaled lipid accumulation score,[1],inactive: 0.514
